The source of these data is US20080267980A1 (MUSC FOUNDATION FOR RESEARCH DEVELOPMENT, published 2008).

The assay addresses T1, Human C3dg-biotin (human, UniProt P01024 fragment, biotin (site not stated) in the SPR experiments).
T1 construct: domain: C3dg; In the ELISA it is purified C3dg coated on wells; also called C3dg ligand; CR2 ligand C3dg
Kind of assay: ELISA, wells coated with purified C3dg, anti-human Fc antibodies. The protocol:
In ELISA experiments, CR2-Fc was added to wells coated with purified C3dg. Binding was detected by means of anti-human Fc antibodies and enzyme-conjugated secondary antibodies. CR2-Fc bound to C3d.

T1 sequence (P01024 955-1303 limits assumed): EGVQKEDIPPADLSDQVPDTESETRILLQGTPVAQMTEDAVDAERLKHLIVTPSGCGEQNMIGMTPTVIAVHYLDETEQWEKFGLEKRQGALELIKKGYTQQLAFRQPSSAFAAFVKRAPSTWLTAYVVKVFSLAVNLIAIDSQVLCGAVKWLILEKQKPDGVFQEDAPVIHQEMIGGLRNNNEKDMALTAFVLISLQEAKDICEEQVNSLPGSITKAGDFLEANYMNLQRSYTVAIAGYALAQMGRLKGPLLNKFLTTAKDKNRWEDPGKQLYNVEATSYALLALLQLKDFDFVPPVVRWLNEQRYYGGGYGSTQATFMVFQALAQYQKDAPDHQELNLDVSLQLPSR

B1: CR2-human IgG1 Fc (Fc fusion)
chain: ISCGSPPPILNGRISYYSTPIAVGTVIRYSCSGTFRLIGEKSLLCITKDKVDGTWDKPAPKCEYFNKYSSCPEPIVPGGYKIRGSTPYRHGDSVTFACKTNFSMNGNKSVWCQANNMWGPTRLPTCVSVFPLECPALPMIHNGHHTSENVGSIAPGLSVTYSCESGYLLVGEKIINCLSSGKWSAVPPTCEEARCKSLGRFPNGKVKEPPILRVGVTANFFCDEGYRLQGPPSSRCVIAGQGVAWTKMPVCEEIFCPLRPQSR[skipping human IgG1 Fc with changes]
notes: First 4 SCRs of CR2 linked to the human IgG1 Fc region; also called CR2-Fc; Human CR2-IgG1 Fc
Consider B1, for which the binding result is reported as “binds”.
